# Assay results: the supplement of paper PMC3334620
# In all, about 33,000 sequences were measured (“E-score (-0.5 to 0.5)”: median about -0.016, highest 2% from about 0.32 on). Some of the results follow.
# Biological target: T1, Stp1 (UniProt B3LFK1)
# T1 sequence: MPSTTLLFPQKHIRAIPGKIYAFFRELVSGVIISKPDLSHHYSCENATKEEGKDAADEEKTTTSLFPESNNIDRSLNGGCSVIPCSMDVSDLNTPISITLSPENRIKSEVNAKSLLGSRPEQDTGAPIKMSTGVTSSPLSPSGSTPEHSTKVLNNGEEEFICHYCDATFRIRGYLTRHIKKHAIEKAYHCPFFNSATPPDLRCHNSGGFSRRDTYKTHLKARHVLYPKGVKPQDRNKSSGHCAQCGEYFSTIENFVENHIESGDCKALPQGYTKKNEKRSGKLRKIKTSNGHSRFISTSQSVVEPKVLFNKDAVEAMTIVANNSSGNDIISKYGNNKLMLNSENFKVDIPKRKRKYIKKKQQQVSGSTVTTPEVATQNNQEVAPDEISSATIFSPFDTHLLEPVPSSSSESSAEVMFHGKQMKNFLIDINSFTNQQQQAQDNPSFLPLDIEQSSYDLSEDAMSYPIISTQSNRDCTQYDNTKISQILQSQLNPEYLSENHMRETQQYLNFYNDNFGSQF
# Assay: PBM E-score (8-mer binding enrichment) (E-score (-0.5 to 0.5)); higher = stronger / more preferred TF binding; most listed sequences are background and not binding sites
# Conditions: protein concentration: 200 nM; construct: GST-full length
# In short: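 GST-tagged yeast TFs (full-length or DNA-binding domain) were made by PURExpress in vitro transcription/translation and applied at about 100-200 nM to universal all-10-mer Agilent arrays. The arrays were made double-stranded by primer extension, on fresh or once-stripped slides. Bound protein was detected with fluorescent anti-GST, and scans were normalised with masliner. Each ungapped eight-base word, pooled with its reverse complement, received an E-score (modified Wilcoxon-Mann-Whitney statistic) from the Universal PBM Analysis Suite.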
row,Sequence,PBM E-score
1,CGCTGGCA,0.0475
2,CAGCATCG,-0.221
3,AGGGATTC,-0.11
4,CCGATCCC,-0.224
5,CGTCGTAA,-0.0276
6,AATGGGTC,-0.287
7,CACAGATC,-0.0371
8,TCTTGCCA,0.0862
9,TCAGGGAA,-0.0569
10,AGTTTGCA,0.0363
11,GCGCCATA,0.25
12,AAATGCAG,-0.0331
13,CACAGCTC,-0.072
14,AGAGACTA,-0.0659
15,CAACTTCC,0.00968
16,ACCTAGTG,-0.119
17,AAATTCTG,0.114
18,GGCACGAC,0.208
19,AAGATTGG,-0.0975
20,ACCGACGT,-0.0131
21,GCACGTTA,0.0836
22,ATCTACTG,0.0413
23,CCGGCAAA,0.116
24,ACACCATC,-0.0987
25,AGCACAAT,0.172

row,Sequence,PBM E-score
1,GTAATAAA,0.286
2,GTCAGTTA,-0.0449
3,CATGTGGG,-0.144
4,CACAGTGA,-0.102
5,AACGGTTC,-0.0856
6,AAAGACAA,0.123
7,ACCTGTTC,-0.0857
8,CATGTTTA,0.0324
9,ACCATAAT,0.14
10,CCCAGGCG,-0.177
11,CTCTTCTC,-0.104
12,ACTTGCTC,-0.146
13,CATTCACA,0.0689
14,CTAAAAGC,0.0149
15,CCCCCTTC,-0.364
16,CGTTACGC,0.112
17,CAACATTC,-0.155
18,TGCCACAA,0.167
19,AACCCATG,-0.149
20,CTTTGAGA,0.199
21,ATTCCGCA,0.0903
22,AAATGTTC,-0.121
23,ATGGCAAG,0.216
24,AGTATCAG,-0.081
25,AAGAGCAT,-0.0887

row,Sequence,PBM E-score
1,ACATGGTG,0.0222
2,ACGGGACC,-0.0673
3,CTCGAGGA,-0.0744
4,CACTTGGG,-0.0291
5,ACCCGGGT,-0.249
6,TAACGGAA,0.0508
7,CAAAATGG,0.112
8,CCCGAACG,0.00944
9,AGCGCTTC,-0.0737
10,ACCACGAC,-0.178
11,GCTTGCGA,0.167
12,ATTCATTG,0.126
13,CCCCTCGG,-0.33
14,AAGCTCAC,-0.136
15,AGATGGCT,0.0349
16,CTACATAG,-0.0467
17,CTGATCCC,-0.284
18,GACCCGCC,-0.0933
19,ATCACATG,-0.0426
20,ACAACGGA,0.161
21,AGCTGCCC,-0.0851
22,AGCGTAGA,-0.118
23,AATCAGGA,-0.0394
24,ATAAGTGA,-0.0348
25,GCCAATAC,-0.0249

row,Sequence,PBM E-score
1,GGACGATA,-0.203
2,CGTCGCGC,-0.0299
3,ATACGAGG,-0.0633
4,AGCCGCGA,0.159
5,GTACACCA,-0.00569
6,CAGACTCA,-0.144
7,CATCCCGC,0.141
8,ACTCGCCG,0.315
9,GGACAGAA,-0.0242
10,AAAGATTA,0.0112
11,CGCTCTTC,-0.175
12,ATGAGCGC,0.157
13,GATTCCGA,0.087
14,AAACTAGT,0.0163
15,GACGGGCA,-0.00302
16,CGCAGTAC,0.0649
17,AACTCGAA,0.107
18,AGCTCATC,-0.307
19,ACGTTATG,0.0357
20,GCTTATTA,0.251
21,CATGGCTA,-0.0935
22,TCGCCTAA,0.0152
23,CCTAACAG,0.121
24,ACACGAAG,0.161
25,AGGAAAGG,-0.0432

row,Sequence,PBM E-score
1,CTAGATCA,-0.0354
2,ACCGTGAG,-0.086
3,TTAAGGAA,0.144
4,GATGCAAC,-0.172
5,CGTTCAAC,0.154
6,CTTGCTGC,0.0525
7,ATACGAAC,0.153
8,GAGGGGGA,-0.346
9,AGCACCCA,-0.277
10,CTCCCAGA,-0.286
11,ACAGAAGC,0.0829
12,GCCATGGC,0.0492
13,AGTTCCTA,0.135
14,CGGGATAC,-0.228
15,ATAATGCG,-0.0164
16,GGCTCCCC,-0.217
17,AACTTAGT,-0.016
18,ATCATGTG,-0.0209
19,AAACTACA,0.175
20,ACGGCAGA,0.367
21,CATCGAAC,-0.0684
22,ACTGATCG,-0.254
23,GCCTGGGA,-0.201
24,ATTTCGTC,0.082
25,TATAACAA,0.172

row,Sequence,PBM E-score
1,CCCGAGGG,-0.245
2,GTGAAGTA,-0.0855
3,AACCGTTC,0.111
4,AGGTGGGC,-0.203
5,ACCCACCT,-0.302
6,AGTCGAAT,-0.184
7,CCTGTCAC,-0.0652
8,CCGACAAC,0.0549
9,AATGAGAA,0.0291
10,CCTGTACC,-0.187
11,CGTCACAG,0.0515
12,ATAAGCGA,0.129
13,ACGCACAC,0.104
14,AGTGTGAT,0.161
15,GAGAAGTA,-0.124
16,CGGGGAGC,-0.0674
17,ATTGCACA,0.156
18,CGCACGAC,0.0873
19,ACTCGCTA,-0.128
20,AATACCTG,-0.183
21,CCTCCGAA,-0.24
22,GAACAGGC,-0.0513
23,CTGATTGA,-0.0409
24,AATAGCGA,0.0425
25,AAACCACT,-0.152

row,Sequence,PBM E-score
1,GCCCGGAC,-0.166
2,ACCGATTA,0.0803
3,AATAGGTC,0.0139
4,TAGGCAAA,0.143
5,AAAGGCGG,0.111
6,ATTCCCAC,-0.151
7,AATGAGGC,0.266
8,GCAATCAC,0.0501
9,GCACTTCC,-0.152
10,ACGAGAAC,-0.0406
11,CTCTTAAC,0.0557
12,GCACGGTA,0.196
13,CTGACTCC,-0.204
14,ATGTACGC,-0.0248
15,ACGATATG,0.0345
16,GCCCGCAC,-0.0198
17,ACATTTAA,0.0374
18,ACTCGGAG,-0.0524
19,CCGCTCCG,0.155
20,CAGGCGCG,0.113
21,AACGATGA,-0.0204
22,GTTTACGA,-0.1
